# Test results from PubChem BioAssay AID463173 (ICCB-Longwood Screening Facility, Harvard Medical School, 2010).
# In all, about 52,000 compounds went through this assay and about 1,700 (3.3%) were called active. No stated cut-off is given here; in the data, active means survival mostly below about 52% (no sharp cut-off); inactive means mostly above about 56%. The list shows a part of the results.
# Test system: Wild type
# Test: S. aureus survival, RN4220 and DeltatarO strains – OD600, teichoic acid synthesis inhibitors, primary screen (AID 463173)
# Settings: S. aureus RN4220 wild type/DeltatarO growth, OD600, 18 h, active compounds read low, screened at 18.75 µg/mL (by protocol)
row,SMILES,survival
1,CN1C(=O)CC(NCCc2ccc(S(N)(=O)=O)cc2)C1=O (stereo not given),inactive: 104%
2,COC(=O)c1scc(-c2ccc(C)cc2)c1S(=O)(=O)N1CCN(c2cccc(OC)c2)CC1,inactive: 53%
3,CNC(=S)N(Cc1cccnc1)Cc1cc2cc(OC)ccc2[nH]c1=O,inactive: 112%
4,CCOC(=O)c1ccc(NC(=O)CC2C(=O)OCCN2CC)cc1 (stereo not given),inactive: 66%
5,O=C(NCc1ccco1)c1ccc2c(c1)N(Cc1ccc(Cl)cc1)C(=O)c1ccccc1S2=O (stereo not given),inactive: 165%
6,Cc1ccc(NC(=O)Nc2ccc3snnc3c2)cc1C,inactive: 90%
7,CCN(c1ccccc1)c1nnc(NC(=O)Nc2ccccc2F)s1,inactive: 108%
8,CCN(C(=O)C1CCCN(S(=O)(=O)c2c(C)noc2/C=C/N(C)C)C1)c1cccc(C)c1 (stereo not given),inactive: 76%
9,COC(=O)c1ccc(Cn2c(=O)cc(C)c3c(C)nn(C)c32)cc1,inactive: 53%
10,Cc1cc(=O)[nH]c2nnc(SCC(=O)Nc3cc(C(F)(F)F)ccc3Cl)n12,inactive: 136%
11,CCc1ccc(CNC(=O)c2nn(-c3ccc(C)c(C)c3)nc2CO)cc1,inactive: 116%
12,CCC(C)NC(=O)Cn1ncc2c(C)n(Cc3ccc(F)cc3)c(C)c2c1=O (stereo not given),inactive: 81%
13,Cc1ccc2c(=O)cc(C(=O)Nc3sc4c(c3C(=O)NCc3ccco3)CCCC4)oc2c1C,inactive: 84%
14,Cc1ccc2c(CNCc3cccs3)c(C(=O)O)n(Cc3ccc(F)cc3)c2c1,inactive: 78%
15,CC(=O)CSc1nc(-c2ccccc2)[nH]c1S(=O)(=O)c1ccc(C)cc1,inactive: 77%
16,CCOc1ccc(Sc2cc(C(=O)NCc3ccc(F)cc3)c3ccccc3n2)cc1,inactive: 146%
17,CCn1cc(C(=O)N2CCN(c3ccccc3)CC2)c(=O)c2cc(S(=O)(=O)N(C)C3CCCCC3)ccc21,inactive: 81%
18,CC(C)(C)C(=O)N1c2ccccc2CCc2ccccc21,inactive: 117%
19,O=C(NC1CCCCC1)C1OC(c2ccccc2)OC1C(=O)NC1CCCCC1 (stereo not given),inactive: 100%
20,CN(C)c1ccc(C(CNC(=O)COc2ccccc2)N2CCOCC2)cc1 (stereo not given),inactive: 78%
21,CCN(CC)S(=O)(=O)c1ccc2c(c1)N(CC(=O)NCc1ccccc1)C(=O)CS2,inactive: 79%
22,Cn1ncc2c(NCc3cccc(Cl)c3)ncnc21,inactive: 135%
23,COc1cc(Cl)c(C)cc1NC(=O)CSc1cc(=O)n(C)c2cc(Cl)ccc12,inactive: 82%

row,SMILES,survival
1,CCOc1ccc(NC(=O)Nc2c(C)n(C)n(-c3ccccc3)c2=O)cc1,inactive: 73%
2,O=C(CN1C(=O)CCSc2ccc(S(=O)(=O)N3CCCC3)cc21)Nc1cccc(Cl)c1,inactive: 89%
3,Cc1ccc(-c2noc(CCC(=O)Nc3ccc(F)cc3Cl)n2)cc1,inactive: 83%
4,Cc1c(Cl)cccc1NC(=O)N1CCN(Cc2cc(=O)n3nc(-c4ccccc4F)sc3n2)CC1,inactive: 70%
5,CCCS(=O)(=O)N1CCC(N2CCN(Cc3ccc(C)cc3)C(=O)C2=O)CC1,inactive: 81%
6,Cc1nn(C)c2c1c(-c1ccccc1)cc(=O)n2Cc1ccccc1F,inactive: 120%
7,O=C(O)/C(=C/C(=O)c1ccccc1)Nc1ccccc1,inactive: 100%
8,COc1ccc(NC(=O)c2cccc(N3CCCS3(=O)=O)c2)cc1,inactive: 69%
9,NC(=O)CSc1ncc2c(n1)-c1ccccc1N(Cc1ccccc1)S2(=O)=O,inactive: 69%
10,Cc1cc(C)c2c(=O)cc(C(=O)NCCc3ccc(S(N)(=O)=O)cc3)oc2c1,inactive: 91%
11,COc1ccc(NS(=O)(=O)c2ccc3c(c2)CCN3C(=O)C2CC2)cc1OC,inactive: 84%
12,O=C(Cc1cccs1)N1CCC(Cc2ccccc2)CC1,inactive: 112%
13,Cc1ccccc1CNC(=O)C(=O)NCC(c1ccco1)S(=O)(=O)c1ccc(F)cc1 (stereo not given),inactive: 55%
14,CC(C)OC(=O)CSc1n[nH]c(-c2cccnc2)n1,inactive: 101%
15,COc1cccc(CNC(=O)Cn2c(=O)c3cccn3c3ccc(F)cc32)c1OC,inactive: 121%
16,COC(=O)c1ccc(COC(=O)c2ccccn2)cc1,inactive: 107%
17,Cc1cccc(NC(=O)C(c2ccccc2)N2Cc3ccccc3C2=O)c1C (stereo not given),inactive: 78%
18,Cc1cccc(NC(=O)CSc2nnc(-c3cccs3)o2)c1,inactive: 85%
19,COc1ccccc1N1CCN(C(=O)CCn2cnc3onc(-c4ccc(F)cc4)c3c2=O)CC1,inactive: 87%
20,COc1cccc2cc(-c3nnc(Nc4ccccc4C)s3)c(=O)oc12,inactive: 74%
21,CNC(=O)CN(C1CCCCC1)S(=O)(=O)c1ccc(C)cc1,inactive: 121%
22,COC(=O)c1sccc1S(=O)(=O)N(CC(=O)Nc1ccc(C)cc1)c1ccccc1,inactive: 99%
23,Cc1cc(C)cc(N2C(=O)CS(=O)(=O)C23C(=O)N(Cc2ccc(F)cc2)c2ccc(C)cc23)c1 (stereo not given),inactive: 76%

row,SMILES,survival
1,COc1ccc(NC(=O)Cn2c(=O)nc(-c3ccccc3)c3ccccc32)cc1OC,inactive: 85%
2,Cc1cc(F)ccc1NC(=O)C1CCCN(c2nnc(-n3c(C)ccc3C)s2)C1 (stereo not given),inactive: 81%
3,Cc1ccc(CCNC(=O)NCc2noc3ccc(C)cc23)cc1,inactive: 85%
4,CCOc1ccc(-c2cc3nc(C4CCN(C(=O)OC(C)(C)C)CC4)c(C(=O)Nc4ccc(C(=O)OC)cc4)cn3n2)cc1,inactive: 125%
5,Cn1ncc(C(=O)N2CCN(c3ccccc3)CC2)c1C1CCN(C(=O)OC(C)(C)C)CC1,inactive: 85%
6,Cc1cc(C)n2nc(CNC(=O)c3cccc(Cl)c3)nc2n1,inactive: 76%
7,CS(=O)(=O)N1CCC(c2nc3c(nnn3Cc3ccc(F)cc3)c(=O)[nH]2)CC1,inactive: 119%
8,COc1cc(S(=O)(=O)N2CC(C)OC(C)C2)c(OC)cc1Cl (stereo not given),inactive: 103%
9,CSc1ccc(CCNC(=O)C(C)n2nc(C)c3c(C)n(-c4ccccc4)nc3c2=O)cc1 (stereo not given),inactive: 64%
10,Cc1cccc(CNC(=O)c2ccc(-c3nc(CS(=O)(=O)c4ccccc4)c(C)o3)cc2)c1,inactive: 87%
11,Cc1ccc(CCNC(=O)Cn2nc(C)c3c(C)n(-c4ccc(C)cc4)nc3c2=O)cc1,inactive: 71%
12,C=CCN1CCN(C(c2ccc(C)cc2)c2nnnn2C2CCCC2)CC1 (stereo not given),inactive: 107%
13,N#CC1=C(N)SC(N)=C(C#N)C1c1cc2c(cc1Cl)OCO2,inactive: 112%
14,CCN1C(=O)/C(=C/C=C2\Oc3ccccc3N2CC)SC1=S,inactive: 99%
15,CN(C)c1ccc(-c2nc(-c3ccccn3)no2)cc1[N+](=O)[O-],inactive: 80%
16,Cc1ccc(NC(=O)COc2ccc3oc4c(c3c2)CCCC4)c(C)c1,inactive: 75%
17,CCN(Cc1ccccc1)C(c1ccccn1)c1nnnn1C(C)(C)CC (stereo not given),inactive: 108%
18,Nc1ncc(S(=O)(=O)NCc2ccccc2F)cn1,inactive: 56%
19,Cc1ccc(Nc2cc(C(=O)NC3CCCC3)c3ccccc3n2)cc1C,inactive: 51%
20,COc1ccccc1N1CCN(C(=O)C2CCN(S(=O)(=O)c3cccc4nonc34)CC2)CC1,inactive: 55%
21,CC(C)COc1ccc(C(=O)NCC2OCCc3ccccc32)cc1 (stereo not given),inactive: 90%
22,CCOC(=O)c1c(C)n(-c2ccccc2)c2ccc(OC(=O)c3ccccc3Cl)cc12,inactive: 60%
23,CCOc1ccc(CCNC(=O)C2CCCN(c3nnc(C)c4c(C)n(-c5ccccc5)nc34)C2)cc1 (stereo not given),inactive: 82%

row,SMILES,survival
1,NC(=O)c1c(NC(=O)c2noc3c2CCCC3)sc2c1CCCC2,inactive: 73%
2,COC(=O)c1cc(NC(=O)CCS(=O)(=O)c2cc(Br)cc3c2N(C(=O)C2CC2)CC3)cc(C(=O)OC)c1,inactive: 84%
3,CCc1ccc2nc(N3CCCCC3)c(C#N)cc2c1,inactive: 101%
4,CCOc1cc2[nH]c(=O)n(CCC(=O)N3CCN(c4cccc(Cl)c4)CC3)c(=O)c2cc1OCC,inactive: 97%
5,Cc1ccc(Cl)cc1N1CC(O)=C(c2nc3ccccc3c(=O)[nH]2)C1=N,inactive: 106%
6,COc1ccc2oc(=O)c(C(=O)NCCc3c(C)[nH]c4c(C)cccc34)cc2c1,inactive: 71%
7,CCn1c2ccccc2c2cc(NC(=O)COc3cc(C)c(Cl)c(C)c3)ccc21,inactive: 52%
8,COc1ccc(-n2nc(C(=O)O)cc2-c2ccccc2)cc1,inactive: 101%
9,Cc1ccccc1C(=O)Nc1ccc(NC(=O)c2cccs2)cc1,inactive: 77%
10,CCOc1ccc(-c2csc3ncnc(Nc4cccc(O)c4)c23)cc1,inactive: 74%
11,CCOC(=O)Cn1nc(C)c(NC(=O)COc2ccc(OC)cc2)c1C,inactive: 99%
12,CCOC(=O)c1c(C)oc2nc(C)nc(N3CCN(c4ccc(C)cc4C)CC3)c12,inactive: 127%
13,COc1ccc(C(=O)NCC(c2ccco2)S(=O)(=O)c2ccccc2)cc1 (stereo not given),active: -6%
14,CC(=O)N1CCCc2cc(S(=O)(=O)N3CCC(C(=O)NCc4ccc(F)cc4)CC3)ccc21,inactive: 85%
15,O=C1N(c2ccccc2)C(=O)N(c2ccccc2)C2c3ccccc3C=CN12 (stereo not given),inactive: 117%
16,NC(=O)CN1C(=O)Cc2ccccc21,inactive: 105%
17,O=C(CCc1ccccc1)N/N=C/c1cccc(O)c1,inactive: 114%
18,CC(C)(C)c1ccc(-c2nnc(-c3ccc(N4CCOCC4)cc3)o2)cc1,inactive: 125%
19,CCCN(C(=O)C1CCN(S(=O)(=O)c2c(C)noc2/C=C/c2ccc(C)cc2)CC1)c1ccccc1F,inactive: 74%
20,Cc1cccc(NC(=O)C2CCC(CNS(=O)(=O)c3ccc4c(c3)CCCC(=O)N4)CC2)c1C (stereo not given),inactive: 89%
21,CCN1CCOC(=O)C1CC(=O)Nc1ccccc1C(F)(F)F (stereo not given),inactive: 81%
